To fix the notation:
B1: TEV protease; numbered along this chain (parent)
chain: MGESLFKGPRDYNPISSSICHLTNESDGHTTSLYGIGFGPFIITNKHLFRRNNGTLVVQSLHGVFKVKDTTTLQQHLVDGRDMIIIRMPKDFPPFPQKLKFREPQREERICLVTTNFQTKSMSSMVSDTSCTFPSGDGIFWKHWIQTKDGQCGSPLVSTRDGFIVGIHSASNFTNTNNYFTSVPKNFMELLTNQEAQQWVSGWRLNADSVLWGGHKVFMVKPEEPFQPVKEATQL

The list shows a part of the results. Sequences were assembled here from the parent chain. Values near 0.05 are background.

The variants in the assay derive from B1. Nature of the assay: raw area under fraction-flipped curve 0-4 h after induction (AUC4h, not background-subtracted), DNA-recorder readout of cleavage of the substrate (dimensionless); higher = more cleavage of the substrate by the protease variant. The settings on record: temperature: 34 °C; time window: 0-4 h after rhamnose induction. As for the experimental part:
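In vivo DNA recorder in E. coli TOP10(DE3) ΔrhaA at 34 °C. Each TEVp single-site mutant (parent TEVp 0) is paired with a single-site variant of the 7-mer TEVs (canonical ENLYFQ|S). The substrate sits between flexible linkers in a Bxb1-sfGFP-TEVs-SsrA fusion, so cleavage stabilises Bxb1 and speeds flipping of a recombination array, read by NGS. The value is the raw area under the fraction-flipped curve over 0-4 h after rhamnose induction (AUC4h), with ≥20 reads per time point. It is not background-subtracted; inactive controls average about 0.047.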
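Also: Bxb1 expression induced with 0.2% (w/v) L-rhamnose at OD600 near 0.5, cultures sampled hourly, flipped fraction per protease–substrate barcode pair counted by paired-end Illumina sequencing.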

On to R50W, for which the “area with substrate ENAYFQS” value was found to be 0.0559, the “area with substrate ENDYFQS” value is 0.0776, the “area with substrate ENFYFQS” value came out at 0.063 and the “area with substrate ENGYFQS” value was found to be 0.0569. In addition, the “area with substrate ENIYFQS” value stood at 0.138, the “area with substrate ENMYFQS” value is 0.134, the “area with substrate ENNYFQS” value is 0.0638 and the “area with substrate ENRYFQS” value worked out at 0.046. Moreover, the “area with substrate ENSYFQS” value was 0.0691 and the “area with substrate ENVYFQS” value was determined as 0.0924.
S201E: the “area with substrate ENAYFQS” value stood at 0.0706, the “area with substrate ENCYFQS” value was determined as 0.019, the “area with substrate ENDYFQS” value stood at 0.067 and the “area with substrate ENEYFQS” value was found to be 0.0528. Moreover, the “area with substrate ENFYFQS” value stood at 0.0152, the “area with substrate ENMYFQS” value is 0.0725, the “area with substrate ENPYFQS” value is 0.0577 and the “area with substrate ENQYFQS” value is 0.0538. The “area with substrate ENVYFQS” value worked out at 0.0568.
For T114N, the “area with substrate ENAYFQS” value was 0.0562, the “area with substrate ENDYFQS” value worked out at 0.0717, the “area with substrate ENHYFQS” value was 0.0651 and the “area with substrate ENMYFQS” value stood at 0.105. The “area with substrate ENPYFQS” value is 0.0153, the “area with substrate ENQYFQS” value came out at 0.0577, the “area with substrate ENSYFQS” value stood at 0.0569 and the “area with substrate ENTYFQS” value was 0.0618. Also, the “area with substrate ENVYFQS” value is 0.0725 and the “area with substrate ENWYFQS” value was 0.0535.
On to G162N, for which the “area with substrate ENAYFQS” value was found to be 0.0861, the “area with substrate ENHYFQS” value was determined as 0.0484, the “area with substrate ENIYFQS” value amounted to 0.112 and the “area with substrate ENPYFQS” value worked out at 0.0618. In addition, the “area with substrate ENTYFQS” value was 0.0773.
With L190D, the “area with substrate ENAYFQS” value is 0.0434, the “area with substrate ENCYFQS” value worked out at 0.066, the “area with substrate ENFYFQS” value was determined as 0.0478 and the “area with substrate ENHYFQS” value is 0.0791. The “area with substrate ENKYFQS” value is 0.0577, the “area with substrate ENMYFQS” value came to 0.0727, the “area with substrate ENNYFQS” value came to 0.098 and the “area with substrate ENVYFQS” value was 0.0798. Further, the “area with substrate ENWYFQS” value amounted to 0.0657.
On to N172H, for which the “area with substrate ENAYFQS” value came out at 0.0471, the “area with substrate ENCYFQS” value was found to be 0.0607, the “area with substrate ENDYFQS” value stood at 0.0483 and the “area with substrate ENGYFQS” value is 0.0541. Also, the “area with substrate ENPYFQS” value was 0.0214, the “area with substrate ENQYFQS” value came out at 0.0597 and the “area with substrate ENRYFQS” value is 0.0894.
As to K7S, the “area with substrate ENAYFQS” value amounted to 0.0602 and the “area with substrate ENQYFQS” value stood at 0.0469.
For the variant T129K, the “area with substrate ENAYFQS” value turned out to be 0.0687, the “area with substrate ENCYFQS” value was determined as 0.0618, the “area with substrate ENEYFQS” value was 0.0582 and the “area with substrate ENGYFQS” value is 0.0653. Also, the “area with substrate ENKYFQS” value is 0.0543, the “area with substrate ENNYFQS” value was determined as 0.0728, the “area with substrate ENPYFQS” value worked out at 0.0466 and the “area with substrate ENQYFQS” value is 0.0608. The “area with substrate ENSYFQS” value turned out to be 0.064, the “area with substrate ENTYFQS” value is 0.0539 and the “area with substrate ENVYFQS” value came out at 0.064.
Consider P134R, for which the “area with substrate ENAYFQS” value was 0.0536, the “area with substrate ENDYFQS” value turned out to be 0.0548, the “area with substrate ENEYFQS” value came to 0.0529 and the “area with substrate ENFYFQS” value was 0.0752. Further, the “area with substrate ENGYFQS” value was found to be 0.0678, the “area with substrate ENHYFQS” value came out at 0.0633, the “area with substrate ENKYFQS” value was 0.0518 and the “area with substrate ENMYFQS” value was 0.0556. In addition, the “area with substrate ENNYFQS” value is 0.0659, the “area with substrate ENPYFQS” value amounted to 0.056, the “area with substrate ENQYFQS” value is 0.0589 and the “area with substrate ENSYFQS” value amounted to 0.0531. Further, the “area with substrate ENVYFQS” value is 0.0645.
For the variant I164V, the “area with substrate ENAYFQS” value came out at 0.0648, the “area with substrate ENIYFQS” value was 0.0773, the “area with substrate ENQYFQS” value stood at 0.0574 and the “area with substrate ENRYFQS” value was determined as 0.0411. Further, the “area with substrate ENVYFQS” value amounted to 0.103.

For the origin of these results see the supplement of paper PMC12217912.
